Data taken from the supplement of paper PMC7125110.
± gives the standard error. Variants at the background level are over-represented here.

B1: glmS ribozyme (parent)
chain: AUAAAAGCGCCAGAACUACAGAAAUGUAGUUGACGAGGAGGAGGUUUAUCGAAUUUUCGGCGGAUGCCUCCAAA

Key:
Settings in all cases: with glucosamine-6-phosphate
glucosamine-6-phosphate [1] = variants of: B1; assay: self-cleavage kobs at 40 uM GlcN6P; higher = faster cleavage; RNA array
Procedure, shortened: (§1)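 Barcoded ribozyme variants, transcribed in situ by E. coli RNA polymerase on sequenced MiSeq chips, were followed via a hybridised Cy3 probe at 37 °C. Glucosamine-6-phosphate ranged from 40 μM to 10 mM in HEPES/KCl/Mg(OAc)2 buffer. kobs came from decay fits to per-tile medians, and kcat and KM from weighted Michaelis–Menten fits.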

glucosamine-6-phosphate [2] = variants of: B1; assay: self-cleavage kobs at 10000 uM GlcN6P; higher = faster cleavage; RNA array
Procedure, shortened: as §1

glucosamine-6-phosphate [3] = variants of: B1; assay: self-cleavage kobs at 640 uM GlcN6P; higher = faster cleavage; RNA array
Procedure, shortened: as §1

glucosamine-6-phosphate [4] = variants of: B1; assay: self-cleavage kobs at 2500 uM GlcN6P; higher = faster cleavage; RNA array
Procedure, shortened: as §1

glucosamine-6-phosphate [5] = variants of: B1; assay: self-cleavage kobs at 160 uM GlcN6P; higher = faster cleavage; RNA array
Procedure, shortened: as §1

Row | Variant | self-cleavage kobs at 40 uM GlcN6P (glucosamine-6-phosphate [1]) [s⁻¹] | self-cleavage kobs at 10000 uM GlcN6P (glucosamine-6-phosphate [2]) [s⁻¹] | self-cleavage kobs at 640 uM GlcN6P (glucosamine-6-phosphate [3]) [s⁻¹] | self-cleavage kobs at 2500 uM GlcN6P (glucosamine-6-phosphate [4]) [s⁻¹] | self-cleavage kobs at 160 uM GlcN6P (glucosamine-6-phosphate [5]) [s⁻¹]
1 | A6U U69A | < 1e-05 | – | – | – | –
2 | G7U C58A C67G C70U | 9.59e-05 ± 3.4e-05 | – | – | – | –
3 | G7U G38U A42G G51U C71A | < 1e-05 | < 1e-05 | – | – | –
4 | G7U A12U G32A C68U | < 1e-05 | < 1e-05 | < 1e-05 | – | –
5 | G7C G32U C61A | < 1e-05 | < 1e-05 | – | < 1e-05 | –
6 | G7C C11A G40A | < 1e-05 | – | – | – | –
7 | C8A G38U G66U | < 1e-05 | – | – | – | –
8 | G7U U31C C50A | < 1e-05 | < 1e-05 | – | – | –
9 | G7U U31G C70U | < 1e-05 | – | – | – | –
10 | G7U C10A G60U | < 1e-05 | – | – | < 1e-05 | < 1e-05
11 | G7C U30A | < 1e-05 | < 1e-05 | < 1e-05 | < 1e-05 | < 1e-05
12 | C8A G29C G37U C61A G62C | < 1e-05 | < 1e-05 | – | – | –
13 | G7U G35U U46A C67U U69C | < 1e-05 | – | < 1e-05 | < 1e-05 | < 1e-05
14 | G7U U55C | < 1e-05 | < 1e-05 | < 1e-05 | < 1e-05 | –
15 | G7C G32A A36G C70G C71A | < 1e-05 | – | – | – | –
16 | G7A G35C | < 1e-05 | < 1e-05 | < 1e-05 | < 1e-05 | –
17 | C8A G29U C50U G51U C68G | 6.11e-05 ± 2.7e-05 | – | – | – | –
18 | G7U G38C | < 1e-05 | < 1e-05 | < 1e-05 | – | –
19 | G7U A33U U54A | < 1e-05 | < 1e-05 | – | – | –
20 | G7A A15U C58A | < 1e-05 | < 1e-05 | < 1e-05 | < 1e-05 | –
21 | C8A C58U | < 1e-05 | – | – | – | –
22 | G7U G29C A33C U45G C68U | < 1e-05 | < 1e-05 | – | – | –
23 | G7A A36U G59U | < 1e-05 | < 1e-05 | – | – | –
24 | G7A C16G U46A U56C | < 1e-05 | < 1e-05 | – | – | –

Row | Variant | self-cleavage kobs at 40 uM GlcN6P (glucosamine-6-phosphate [1]) [s⁻¹] | self-cleavage kobs at 10000 uM GlcN6P (glucosamine-6-phosphate [2]) [s⁻¹] | self-cleavage kobs at 640 uM GlcN6P (glucosamine-6-phosphate [3]) [s⁻¹] | self-cleavage kobs at 2500 uM GlcN6P (glucosamine-6-phosphate [4]) [s⁻¹] | self-cleavage kobs at 160 uM GlcN6P (glucosamine-6-phosphate [5]) [s⁻¹]
25 | G7U G40C | < 1e-05 | < 1e-05 | < 1e-05 | < 1e-05 | –
26 | G7U U47A | < 1e-05 | – | < 1e-05 | < 1e-05 | < 1e-05
27 | G7U G32A C58U | < 1e-05 | < 1e-05 | – | < 1e-05 | –
28 | G7C G29U G32U A64C | < 1e-05 | – | – | – | –
29 | G7A A12C A42C U49A G60C | < 1e-05 | < 1e-05 | – | – | –
30 | G7C C10U U46A U55A C71A | < 1e-05 | – | – | – | –
31 | G7U A14C | < 1e-05 | < 1e-05 | < 1e-05 | < 1e-05 | < 1e-05
32 | C8A A48C C67U | < 1e-05 | < 1e-05 | – | – | –
33 | G7U A42C | < 1e-05 | < 1e-05 | < 1e-05 | < 1e-05 | < 1e-05
34 | G7C A52C G60A | < 1e-05 | < 1e-05 | – | – | –
35 | G7U U54G C70G C71U | 7.3e-05 ± 2.8e-05 | 5.65e-05 ± 2.5e-05 | – | – | –
36 | C8A G35A | < 1e-05 | < 1e-05 | < 1e-05 | < 1e-05 | < 1e-05
37 | G7C C10U | < 1e-05 | < 1e-05 | – | – | –
38 | G7A U45A | < 1e-05 | – | – | – | < 1e-05
39 | G7A U45G | < 1e-05 | < 1e-05 | < 1e-05 | < 1e-05 | –
40 | G7A U49G | < 1e-05 | – | < 1e-05 | < 1e-05 | < 1e-05
41 | G7C A15U | < 1e-05 | < 1e-05 | – | – | < 1e-05
42 | G7A C8G G9C C70U | < 1e-05 | – | – | – | < 1e-05
43 | C8A A42C C67U | < 1e-05 | – | – | < 1e-05 | –
44 | C8A A33G | < 1e-05 | < 1e-05 | – | < 1e-05 | < 1e-05
45 | G7U A48U G60C | < 1e-05 | – | – | – | –
46 | G7C U54C | < 1e-05 | < 1e-05 | < 1e-05 | < 1e-05 | < 1e-05
47 | C8A G9U C10U G44A | < 1e-05 | < 1e-05 | – | – | –
48 | G7C C67U | < 1e-05 | < 1e-05 | < 1e-05 | < 1e-05 | < 1e-05

Row | Variant | self-cleavage kobs at 40 uM GlcN6P (glucosamine-6-phosphate [1]) [s⁻¹] | self-cleavage kobs at 10000 uM GlcN6P (glucosamine-6-phosphate [2]) [s⁻¹] | self-cleavage kobs at 640 uM GlcN6P (glucosamine-6-phosphate [3]) [s⁻¹] | self-cleavage kobs at 2500 uM GlcN6P (glucosamine-6-phosphate [4]) [s⁻¹] | self-cleavage kobs at 160 uM GlcN6P (glucosamine-6-phosphate [5]) [s⁻¹]
49 | C8A C11G A12G C68U | < 1e-05 | – | – | – | –
50 | C8A C11G U46G | < 1e-05 | < 1e-05 | – | – | –
51 | G7U G60U U65A | < 1e-05 | < 1e-05 | – | – | –
52 | G7U A33C G41A A48U | < 1e-05 | < 1e-05 | – | – | –
53 | G7U U45G C71A | < 1e-05 | < 1e-05 | – | < 1e-05 | –
54 | G7U G51C U54A U65G C68A | < 1e-05 | – | – | – | –
55 | G7U A39U | < 1e-05 | < 1e-05 | – | – | < 1e-05
56 | G7A A52G U65A | < 1e-05 | – | < 1e-05 | – | –
57 | G7U A15C | < 1e-05 | < 1e-05 | < 1e-05 | < 1e-05 | < 1e-05
58 | G7U | < 1e-05 | < 1e-05 | < 1e-05 | < 1e-05 | < 1e-05
59 | G7C | < 1e-05 | < 1e-05 | < 1e-05 | < 1e-05 | < 1e-05
60 | G7U U65A | < 1e-05 | < 1e-05 | < 1e-05 | < 1e-05 | < 1e-05
61 | C8A C11G U56G | < 1e-05 | – | < 1e-05 | < 1e-05 | < 1e-05
62 | G7A C10G | < 1e-05 | < 1e-05 | < 1e-05 | < 1e-05 | < 1e-05
63 | G7C U56A G59U G62C | < 1e-05 | < 1e-05 | – | – | –
64 | G7C G44C | < 1e-05 | – | < 1e-05 | – | –
65 | G7A G29C U57G C70G | 0.000158 ± 7.6e-05 | 0.000678 ± 0.00017 | – | – | –
66 | C8A G66C | < 1e-05 | – | – | < 1e-05 | –
67 | G7C G62U | < 1e-05 | – | – | – | –
68 | G7U G37C A39C G62C | < 1e-05 | – | – | – | –
69 | G7A A52U | < 1e-05 | < 1e-05 | < 1e-05 | < 1e-05 | < 1e-05
70 | C8G A15G | < 1e-05 | < 1e-05 | < 1e-05 | < 1e-05 | < 1e-05
71 | G7C C11G U54C | < 1e-05 | < 1e-05 | < 1e-05 | < 1e-05 | < 1e-05
72 | C8A G43A | < 1e-05 | – | < 1e-05 | < 1e-05 | < 1e-05

Row | Variant | self-cleavage kobs at 40 uM GlcN6P (glucosamine-6-phosphate [1]) [s⁻¹] | self-cleavage kobs at 10000 uM GlcN6P (glucosamine-6-phosphate [2]) [s⁻¹] | self-cleavage kobs at 640 uM GlcN6P (glucosamine-6-phosphate [3]) [s⁻¹] | self-cleavage kobs at 2500 uM GlcN6P (glucosamine-6-phosphate [4]) [s⁻¹] | self-cleavage kobs at 160 uM GlcN6P (glucosamine-6-phosphate [5]) [s⁻¹]
73 | G7U C70G C71G | 4.02e-05 ± 2e-05 | – | – | – | –
74 | G7A C8A | < 1e-05 | < 1e-05 | < 1e-05 | < 1e-05 | < 1e-05
75 | C8A U47A | < 1e-05 | < 1e-05 | < 1e-05 | < 1e-05 | < 1e-05
76 | C8A U47C | < 1e-05 | < 1e-05 | < 1e-05 | < 1e-05 | –
77 | C8G A14C C68U | < 1e-05 | – | – | – | –
78 | G7A A33U C50U | < 1e-05 | – | – | < 1e-05 | < 1e-05
79 | G7U C16U A33G | < 1e-05 | < 1e-05 | – | – | –
80 | G7A A48C A53C | < 1e-05 | < 1e-05 | – | – | –
81 | C8G A14G U57A | < 1e-05 | < 1e-05 | – | < 1e-05 | –
82 | G7A U46G C67U | < 1e-05 | – | – | – | –
83 | G7A C16U G29C G32C A53U U54A | < 1e-05 | < 1e-05 | – | – | –
84 | C8A A33G G44C | < 1e-05 | < 1e-05 | – | – | –
85 | G7C G13C G29U U69A | < 1e-05 | < 1e-05 | – | – | –
86 | C8A C34A G41C U54G C70U | < 1e-05 | < 1e-05 | – | – | –
87 | G7C U56G | < 1e-05 | < 1e-05 | < 1e-05 | < 1e-05 | < 1e-05
88 | C8A A15G G60A | < 1e-05 | – | < 1e-05 | < 1e-05 | –
89 | G7A C10G C50A G59C U69C | < 1e-05 | < 1e-05 | – | – | –
90 | C8A A42C U47G C61U U69C | < 1e-05 | – | < 1e-05 | < 1e-05 | –
91 | C8A A33C A36C A42U C58G | < 1e-05 | – | < 1e-05 | < 1e-05 | –
92 | G7C C11U G62U | < 1e-05 | – | – | – | –
93 | G7A G37C C50A A52U | < 1e-05 | – | < 1e-05 | – | < 1e-05
94 | G7U A53G | < 1e-05 | < 1e-05 | < 1e-05 | < 1e-05 | < 1e-05
95 | C8A G29C G35A C67G | < 1e-05 | – | – | – | –
